Results on 84 variants are retold here after the RNAGym collection of RNA variant scans (doi:10.1073/pnas.2313332121).

This sample is rich in variants without activity.

To fix the notation:
B1: TPR 5TU (parent)
chain: GGAUCUUCUCGAUCUAACAAAAAAGACAAAUCUGCCACAAAGCUUGAGAGCAUCUUCGGAUGCAGAGGCGGCAGCCUUCGGUGGCGCGAUAGCGCCAACGUUCUCAACUAUGACACGCAAAACGCGUGCUCCGUUGAAUGGAGUUUAUCAUG

Variants of B1 are the subject of the data set. As to the kind of experiment: polymerase ribozyme fitness, log enrichment relative to wild type (log ratio); higher = more active; in vitro selection for triplet polymerase activity. In short, it runs like this:
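Mutant libraries of each subunit of a heterodimeric triplet polymerase ribozyme were built by PCR and transcribed. Each library went through one round of in vitro selection in triplicate: annealing with biotinylated primer, partner subunit and triplets, frozen incubation at −7 °C, gel excision of extended constructs, streptavidin-bead capture and RT-PCR. Input and output libraries were Illumina-sequenced; only genotypes with ≥10 input reads and ≥1 read per output were kept. Fitness is log2(genotype enrichment/wild-type enrichment), using inverse-variance-weighted replicate averages.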
As for U9A A137G, the “polymerase ribozyme fitness (log ratio)” value was at most -4.2.

Consider C8U C32U C85U C125G C132A, for which the “polymerase ribozyme fitness (log ratio)” value was at most -4.2.

U9A U53A C116U G124U: the “polymerase ribozyme fitness (log ratio)” value was at most -4.2.

For U9A A39C C76U G86U A147C C149G, the “polymerase ribozyme fitness (log ratio)” value is at most -4.2.

As for C8U A20C G58U G59A C87G C96U C105A, the “polymerase ribozyme fitness (log ratio)” value was at most -4.2.

With C8U G94A, the “polymerase ribozyme fitness (log ratio)” value was -3.24.

Take U9C C18U G71C U82A C85G U146G A150C: the “polymerase ribozyme fitness (log ratio)” value is at most -4.2.

Take U9A C14A C93U: the “polymerase ribozyme fitness (log ratio)” value was at most -4.2.

For the variant U9C C54G, the “polymerase ribozyme fitness (log ratio)” value is at most -4.2.

With C8U C32A A49G G92A C96U U127G A138G, the “polymerase ribozyme fitness (log ratio)” value is at most -4.2.

For C8U A52U C54U G83A C118A U127G, the “polymerase ribozyme fitness (log ratio)” value was at most -4.2.

On to U9C A22G U45A C87G G100U, for which the “polymerase ribozyme fitness (log ratio)” value is at most -4.2.

As to U9A C14A G88C C95U, the “polymerase ribozyme fitness (log ratio)” value was at most -4.2.

As for C8U C14G U53A G59A A73G C95G C96U, the “polymerase ribozyme fitness (log ratio)” value was at most -4.2.

C8U A28U C51U C79A C95A C96A U102A C118U G141C: the “polymerase ribozyme fitness (log ratio)” value was at most -4.2.

Turning to C8U A17G A21U C57U G80A C96G, the “polymerase ribozyme fitness (log ratio)” value is at most -4.2.

As to U9A C38A C72A G84A C125U, the “polymerase ribozyme fitness (log ratio)” value was at most -4.2.

U9G A52G U56A C57U G92A G141C U144A: the “polymerase ribozyme fitness (log ratio)” value is at most -4.2.

Regarding U9C A52G C93U A115U C116G, the “polymerase ribozyme fitness (log ratio)” value is at most -4.2.

For the variant U9G A12U C18G G84C U90A A97U U101G A121U, the “polymerase ribozyme fitness (log ratio)” value is at most -4.2.

C8U A26U C27U G92C G100C C103G: the “polymerase ribozyme fitness (log ratio)” value was at most -4.2.

Turning to U9A U56A C93A C108G G140U, the “polymerase ribozyme fitness (log ratio)” value was at most -4.2.

On to C8U A26U U44A C85U A115U C118A G133U, for which the “polymerase ribozyme fitness (log ratio)” value was at most -4.2.

For C8U U15C A17U A40G G42C U61G C75U C93U C129U G133U, the “polymerase ribozyme fitness (log ratio)” value is at most -4.2.

For the variant U9C C54A C87G U134A, the “polymerase ribozyme fitness (log ratio)” value is at most -4.2.

Regarding U9C G50C G86A C93G C99U U134A A142U, the “polymerase ribozyme fitness (log ratio)” value was at most -4.2.

As to C8U G11C C32U U33G G92A G143U A150G, the “polymerase ribozyme fitness (log ratio)” value is at most -4.2.

For the variant C8U U9A A26G A49U C54G C79U G81A G83C C85U C116U G117A, the “polymerase ribozyme fitness (log ratio)” value is at most -4.2.

Consider C8U A16G C38U C79G, for which the “polymerase ribozyme fitness (log ratio)” value was at most -4.2.

C8U C27U A39G C57G C87G C93G A107G G112C: the “polymerase ribozyme fitness (log ratio)” value was at most -4.2.

With U9A G11A A29G C35U A49G C87U G92A U127C G128C, the “polymerase ribozyme fitness (log ratio)” value is at most -4.2.

Consider C8U C36A A49G C72U G86C G140A, for which the “polymerase ribozyme fitness (log ratio)” value is at most -4.2.

With C8U A17U A49U U53A G83U G133C, the “polymerase ribozyme fitness (log ratio)” value is at most -4.2.

Regarding C8U A21U A29C C57G G84U C149G, the “polymerase ribozyme fitness (log ratio)” value was at most -4.2.

With C8U A20U A41C U44A U90C G92A C105U, the “polymerase ribozyme fitness (log ratio)” value is at most -4.2.

Take C8U A28C A37C C57U G67C G74C C93U U104C U144C: the “polymerase ribozyme fitness (log ratio)” value is at most -4.2.

For the variant U9A C32U U55A, the “polymerase ribozyme fitness (log ratio)” value is at most -4.2.

As for C8U U15A U44A A97C A120U U139A, the “polymerase ribozyme fitness (log ratio)” value was at most -4.2.

Turning to U9G C10U C27A A73G C87G U90G U145A A150G, the “polymerase ribozyme fitness (log ratio)” value is at most -4.2.

On to C8U A12C A24C A30C C38G C76G G94A C131A A137C, for which the “polymerase ribozyme fitness (log ratio)” value is at most -4.2.

With C8U C93A, the “polymerase ribozyme fitness (log ratio)” value is at most -4.2.

In the case of C8U A17U A24C G71C A120C, the “polymerase ribozyme fitness (log ratio)” value is at most -4.2.

U9C U44A C75G C87A U101C U146C: the “polymerase ribozyme fitness (log ratio)” value is at most -4.2.

As for U9G A64U A66C A142C, the “polymerase ribozyme fitness (log ratio)” value was at most -4.2.

On to U9C A16G A40U G50A C95G A115U C131G, for which the “polymerase ribozyme fitness (log ratio)” value was at most -4.2.

As to C8U A30G G86A, the “polymerase ribozyme fitness (log ratio)” value was at most -4.2.

Consider U9A C76A C85U G100C U104G A115U, for which the “polymerase ribozyme fitness (log ratio)” value was at most -4.2.

C8U A21U A29C G58A C87A C95G: the “polymerase ribozyme fitness (log ratio)” value is at most -4.2.

With C8U A24U U33G C76U C85A G88U C96G C123U U144G, the “polymerase ribozyme fitness (log ratio)” value was at most -4.2.

As to C8U A28U A52C C54A C87U G92U G141U U145C U146A, the “polymerase ribozyme fitness (log ratio)” value is at most -4.2.

For U9A A30U C36G G88U G141C, the “polymerase ribozyme fitness (log ratio)” value was at most -4.2.

Turning to C8U A23C C36G U55A A106U A107G C108U C125G, the “polymerase ribozyme fitness (log ratio)” value was at most -4.2.

As for C8U U9C A20G A24U C36U G80A G92A A137U U148A, the “polymerase ribozyme fitness (log ratio)” value was at most -4.2.

In the case of U9C U53A A91G C108U C125U A137U, the “polymerase ribozyme fitness (log ratio)” value was at most -4.2.

Turning to C8U G70U C76A G81U C85U U101A U134A, the “polymerase ribozyme fitness (log ratio)” value is at most -4.2.

For the variant C8U C69A G83A C85G C105U, the “polymerase ribozyme fitness (log ratio)” value is at most -4.2.

Consider U9C G59A G84C G88A U134A G141A, for which the “polymerase ribozyme fitness (log ratio)” value is at most -4.2.

Consider U9A A24C A49C G74C A91G U148A, for which the “polymerase ribozyme fitness (log ratio)” value was at most -4.2.

U9A A60C C85G C99G G117A G133C U139C U144C U148C: the “polymerase ribozyme fitness (log ratio)” value was at most -4.2.

On to U9A U45A U53A G58A C96U A98G A120C U134G G143A, for which the “polymerase ribozyme fitness (log ratio)” value is at most -4.2.

For the variant C8U U44A G48A C63U C69U C76G G92U U139A G140U, the “polymerase ribozyme fitness (log ratio)” value is at most -4.2.

As for U9C C27U A41U A49U A60C A66G C76A A91U G140C U146A U148G, the “polymerase ribozyme fitness (log ratio)” value was at most -4.2.

For C8U U33A A49G A60G A89C C93U G141C, the “polymerase ribozyme fitness (log ratio)” value was at most -4.2.

Regarding U9C A12C A20G U53A A73U G92U C114A A121U G140A U151A, the “polymerase ribozyme fitness (log ratio)” value was at most -4.2.

As for U9G A21U A24G C72U A147C, the “polymerase ribozyme fitness (log ratio)” value was at most -4.2.

On to U9C G70C C72U G92A G117U, for which the “polymerase ribozyme fitness (log ratio)” value is at most -4.2.

Take U9C C54U C76A A91G G141C U151G: the “polymerase ribozyme fitness (log ratio)” value is at most -4.2.

Regarding U9C U13A U15A C76U G86U, the “polymerase ribozyme fitness (log ratio)” value was -4.11.

As for C8U C57U U61A A64C G94A A107C A138U, the “polymerase ribozyme fitness (log ratio)” value is at most -4.2.

As for U9A G59A C75U G81A A89U U101A A106G, the “polymerase ribozyme fitness (log ratio)” value is at most -4.2.

As to C8U A64G G68C C85U, the “polymerase ribozyme fitness (log ratio)” value was at most -4.2.

C8U C32U U53A G70A C87U U130A: the “polymerase ribozyme fitness (log ratio)” value was at most -4.2.

For U9A C32U, the “polymerase ribozyme fitness (log ratio)” value was at most -4.2.

As for U9C U15C A20U C85A A106G A110U C114A, the “polymerase ribozyme fitness (log ratio)” value is at most -4.2.

Regarding C8U A89U G92U C93A C125U A138C, the “polymerase ribozyme fitness (log ratio)” value is at most -4.2.

Regarding C8U A19C A24U A66C A73U G84U C85U C87G C103G C131G, the “polymerase ribozyme fitness (log ratio)” value was at most -4.2.

For U9C A28U C32G G94C A98U A106U A137G G140A, the “polymerase ribozyme fitness (log ratio)” value was at most -4.2.

Consider C8U U61A C79A G83C, for which the “polymerase ribozyme fitness (log ratio)” value was at most -4.2.

Take U9A G42U A66U C87A U145C: the “polymerase ribozyme fitness (log ratio)” value was at most -4.2.

Turning to U9G A16U A138U, the “polymerase ribozyme fitness (log ratio)” value is at most -4.2.

Regarding U9C G58C A91G C105G A110G, the “polymerase ribozyme fitness (log ratio)” value was at most -4.2.

Regarding C8G U56G C87G A91G C93G A142U, the “polymerase ribozyme fitness (log ratio)” value was at most -4.2.

C8U A20C C51U G88C A150G: the “polymerase ribozyme fitness (log ratio)” value was at most -4.2.

With C8U U44A A97G G133C U148A, the “polymerase ribozyme fitness (log ratio)” value was at most -4.2.
